Reference: the antibiotic and cytotoxicity screens of Wong et al. (2023)
This is one part of the list.

Columns and labels:
HSkMC = human skeletal muscle cells; assay: cytotoxicity call (relative viability < 0.9); details: 10 µM
S. aureus RN4220 = assay: growth inhibition call (relative growth <= 0.2); details: 50 µM
HepG2 = assay: cytotoxicity call (relative viability < 0.9); details: 10 µM

| SMILES | cytotoxicity call (HSkMC) | growth inhibition call (S. aureus RN4220) | cytotoxicity call (HepG2) |
| --- | --- | --- | --- |
| COCC(=O)N1CC[C@]2(CC1)CN(Cc1ccc3c(c1)OCO3)[C@@H](CO)c1c2c2ccc(cc2n1C)OC | inactive | inactive |  |
| C[C@H](CO)N1C[C@H](C)[C@H](CN(C)Cc2ccc(Oc3ccccc3)cc2)Oc2ccc(NC(=O)Cn3cnnn3)cc2CC1=O | inactive | inactive |  |
| COc1ccc(OC)c(S(=O)(=O)N2[C@@H]3CC[C@@H](C3)[C@H]2c2nc3cccc(OCc4ccccc4)c3[nH]2)c1 | inactive | inactive |  |
| O=C(C[C@@H]1CC[C@H](NS(=O)(=O)c2ccccc2F)[C@@H](CO)O1)NCCCN1CCOCC1 | inactive | inactive |  |
| NC(=O)CN1CCCCCC1=O | inactive | inactive |  |
| Cc1ccc(S(=O)(=O)N[C@@H]2CC[C@@H](CC(=O)NCc3ccc(Cl)c(Cl)c3)O[C@@H]2CO)cc1 | inactive | inactive |  |
| COc1ccc(CN(C)C[C@H]2OCCCC[C@H](C)Oc3ccc(NC(=O)Cc4ccccc4)cc3C(=O)N([C@H](C)CO)C[C@H]2C)cc1 | inactive | inactive |  |
| COc1ccc(S(=O)(=O)N(C)C[C@@H]2Oc3ccc(NS(=O)(=O)c4c(C)noc4C)cc3C(=O)N([C@@H](C)CO)C[C@H]2C)cc1 | inactive | inactive |  |
| CSCC[C@H]1NC(=O)NC1=O | inactive | inactive |  |
| COc1ccc(CN(C)C[C@H]2OCCCC[C@@H](C)Oc3ccc(NS(=O)(=O)c4ccc(OC)cc4)cc3C(=O)N([C@H](C)CO)C[C@H]2C)cc1 | inactive | inactive |  |
| C[C@H](CO)N1C[C@H](C)[C@@H](CN(C)Cc2ccncc2)OCCCC[C@H](C)Oc2ccc(NS(=O)(=O)c3ccc(Cl)cc3)cc2C1=O | inactive | inactive |  |
| Nc1ncnc2c1ncn2[C@@H]1O[C@H](CO)[C@@H](O)[C@@H]1O | inactive | inactive |  |
| O=P(O)(O)CN1CCN(CP(=O)(O)O)CCN(CP(=O)(O)O)CCN(CP(=O)(O)O)CC1 | inactive | inactive |  |
| C[C@H](CO)N1C[C@H](C)[C@H](CN(C)C(=O)Nc2cc(F)ccc2F)Oc2cc(/C=C/c3ccccc3)ccc2S1(=O)=O | inactive | inactive |  |
| C[C@@H]1CCCCO[C@H](CN(C)C(=O)C2CCCCC2)[C@H](C)CN([C@@H](C)CO)C(=O)c2cc(NC(=O)Nc3ccc(F)cc3)ccc2O1 | inactive | inactive |  |
| COc1ccc([C@@H](NC(=O)C2CCN(Cc3ccc(Oc4ccccc4)cc3)CC2)c2ccccn2)cc1 | inactive | inactive |  |
| C[C@@H]1CN([C@@H](C)CO)C(=O)CCCn2nncc2CO[C@H]1CN(C)C(=O)Nc1ccc2c(c1)OCCO2 | inactive | inactive |  |
| C[C@H](CO)N1C[C@H](C)[C@H](CN(C)S(=O)(=O)c2ccccc2)Oc2ccc(NC(=O)c3ccncc3)cc2C1=O | inactive | inactive |  |
| Cc1ccc(S(=O)(=O)N(C)C[C@H]2Oc3ccc(NS(=O)(=O)c4c(C)noc4C)cc3C(=O)N([C@@H](C)CO)C[C@H]2C)cc1 | inactive | inactive |  |

| SMILES | cytotoxicity call (HSkMC) | growth inhibition call (S. aureus RN4220) | cytotoxicity call (HepG2) |
| --- | --- | --- | --- |
| Cc1ccc(S(=O)(=O)Nc2ccc3c(c2)C(=O)N([C@@H](C)CO)C[C@H](C)[C@@H](CN(C)S(=O)(=O)c2ccc(F)cc2)OCCCC[C@H](C)O3)cc1 | inactive | inactive |  |
| COc1ccc(S(=O)(=O)Nc2ccc3c(c2)CC(=O)N([C@@H](C)CO)C[C@@H](C)[C@H](CN(C)S(=O)(=O)c2ccccc2)O3)cc1 | inactive | inactive |  |
| C[C@@H]1CCCCO[C@@H](CN(C)C(=O)C2CCCCC2)[C@@H](C)CN([C@@H](C)CO)C(=O)c2cc(NC(=O)NC3CCCCC3)ccc2O1 | inactive | inactive |  |
| C[C@H]1CN([C@@H](C)CO)C(=O)c2cc(NS(C)(=O)=O)ccc2O[C@H]1CN(C)S(=O)(=O)c1ccc(Cl)cc1 | inactive | inactive |  |
| C[C@H]1CN([C@@H](C)CO)C(=O)c2cccc(NS(=O)(=O)c3ccccc3)c2O[C@H]1CN(C)Cc1ccc(Oc2ccccc2)cc1 | inactive | inactive |  |
| OC[C@H]1O[C@@H](n2cnc3c(NC4CCCC4)ncnc32)[C@H](O)[C@@H]1O | inactive | inactive |  |
| Cc1ccc(S(=O)(=O)N(C)C[C@H]2OCCCC[C@@H](C)Oc3ccc(NC(=O)Nc4ccc(C(F)(F)F)cc4)cc3C(=O)N([C@@H](C)CO)C[C@H]2C)cc1 | inactive | inactive |  |
| Cc1ccc(S(=O)(=O)Nc2ccc3c(c2)C(=O)N([C@@H](C)CO)C[C@H](C)[C@@H](CN(C)Cc2ccc(-c4ccccc4)cc2)O3)cc1 | inactive | inactive |  |
| COc1ccc(NC(=O)N(C)C[C@@H]2Oc3ncc(C#C[C@H](C)O)cc3C(=O)N([C@@H](C)CO)C[C@H]2C)cc1 | inactive | inactive |  |
| O=C(O)[C@H]1CCCC[C@@H]1C(=O)N1CCOCC1 | inactive | inactive |  |
| COc1ccc(S(=O)(=O)Nc2ccc3c(c2)C(=O)N([C@@H](C)CO)C[C@H](C)[C@H](CN(C)Cc2ccc4c(c2)OCO4)OCCCC[C@@H](C)O3)cc1 | inactive | inactive |  |
| C[C@H]1O[C@@H](O[C@H]2CC[C@@]3(C)[C@@H](CC[C@@]4(C)[C@@H]3CC=C3[C@H]5C[C@](C)(C(=O)O)CC[C@]5(C(=O)O[C@H]5O[C@@H](CO)[C@@H](O)[C@@H](O)[C@@H]5O)CC[C@@]34C)[C@@]2(C)CO)[C@@H](O)[C@@H](O[C@H]2O[C@@H](CO)[C@@H](O)[C@@H](O)[C@@H]2O)[C@@H]1O | inactive | inactive |  |
| O=C(N[C@@H]1CC[C@@H](CCn2cc(C3(O)CCCC3)nn2)O[C@H]1CO)C1CCOCC1 | inactive | inactive |  |
| C[C@H]1CN([C@@H](C)CO)C(=O)c2cccc(NC(=O)c3ccc(-c4nccs4)cc3)c2O[C@@H]1CN(C)Cc1ccccc1 | inactive | inactive | inactive |
| C[C@H]1CN([C@@H](C)CO)C(=O)c2cccc(NC(=O)C3CC3)c2O[C@H]1CN(C)C(=O)NC1CCCCC1 | inactive | inactive | inactive |
| CC(C)(C)[S@](=O)N1Cc2cc(C(=O)NCCN3CCCCC3)nc(-c3cccc(-c4ccc(C#N)cc4)c3)c2[C@@H]1CCO | inactive | inactive |  |
| COc1ccc(S(=O)(=O)Nc2ccc3c(c2)CC(=O)N([C@@H](C)CO)C[C@H](C)[C@H](CN(C)C)O3)cc1 | inactive | inactive |  |
| Cc1cn([C@H]2C[C@H](F)[C@@H](CO)O2)c(=O)[nH]c1=O | inactive | inactive |  |
| C[C@@H]1CCCCO[C@H](CN(C)C(=O)c2ccccc2)[C@H](C)CN([C@@H](C)CO)C(=O)c2cc(NC(=O)CCC(F)(F)F)ccc2O1 | inactive | inactive | inactive |

| SMILES | cytotoxicity call (HSkMC) | growth inhibition call (S. aureus RN4220) | cytotoxicity call (HepG2) |
| --- | --- | --- | --- |
| CN(C)Cc1cn(CC[C@@H]2CC[C@@H](NC(=O)Cc3cccnc3)[C@@H](CO)O2)nn1 | inactive | inactive | inactive |
| Cc1ccc(S(=O)(=O)Nc2ccc3c(c2)C(=O)N([C@H](C)CO)C[C@@H](C)[C@@H](CN(C)C(=O)c2ccccc2)OCCCC[C@@H](C)O3)cc1 | inactive | inactive |  |
| C[C@@H]1CN([C@H](C)CO)C(=O)c2cc(NC(=O)Nc3ccccc3)ccc2O[C@H]1CN(C)C(=O)Nc1ccc(C(F)(F)F)cc1 | inactive | inactive | inactive |
| N#Cc1cccnc1Oc1ccccc1 | inactive | inactive | inactive |
| C[C@@H]1CN([C@@H](C)CO)C(=O)c2cc(NC(=O)Nc3cccc4ccccc34)ccc2O[C@@H](C)CCCCO[C@H]1CN(C)CC1CCCCC1 | active | inactive | active |
| COc1cccc(NC(=O)N(C)C[C@@H]2Oc3cc(Br)ccc3S(=O)(=O)N([C@@H](C)CO)C[C@H]2C)c1 | inactive | inactive |  |
| COC1=C2C[C@@H](C)C[C@H](OC)[C@H](O)[C@@H](C)/C=C(\C)[C@H](OC(N)=O)[C@@H](OC)/C=C/C=C(\C)C(=O)NC(=CC1=O)C2=O | active | inactive | active |
| C[C@H](CO)N1C[C@H](C)[C@@H](CN(C)S(=O)(=O)c2cn(C)cn2)Oc2ccc(NS(C)(=O)=O)cc2CC1=O | inactive | inactive | inactive |
| C[C@H]1CN([C@@H](C)CO)C(=O)c2cccc(NS(=O)(=O)c3ccccc3)c2O[C@@H]1CN(C)Cc1ccc(Oc2ccccc2)cc1 | inactive | inactive | inactive |
| c1csc(Cn2cccc2)c1 | inactive | inactive |  |
| CN(C)CC(=O)N[C@@H]1CC[C@H](CCNS(=O)(=O)c2ccccc2)O[C@H]1CO | inactive | inactive |  |
| Cc1ccc(S(=O)(=O)Nc2ccc3c(c2)C(=O)N([C@H](C)CO)C[C@H](C)[C@H](CN(C)C(=O)C2CCCCC2)OCCCC[C@H](C)O3)cc1 | inactive | inactive | inactive |
| Cn1c(=O)cc(N2CCC[C@@H](N)C2)n(Cc2cc(F)ccc2C#N)c1=O | inactive | inactive |  |
| COc1ccc(S(=O)(=O)Nc2ccc3c(c2)CC(=O)N([C@@H](C)CO)C[C@@H](C)[C@H](CN(C)S(=O)(=O)c2ccc(C)cc2)O3)cc1 | inactive | inactive | inactive |
| COc1ccc(S(=O)(=O)N(C)C[C@H]2OCc3cn(nn3)CCCC(=O)N([C@H](C)CO)C[C@H]2C)cc1 | inactive | inactive |  |
| Cc1noc(C)c1S(=O)(=O)N(C)C[C@H]1Oc2ccc(NC(=O)c3ccncc3)cc2CC(=O)N([C@H](C)CO)C[C@@H]1C | inactive | inactive |  |
| C[C@H](CO)N1C[C@H](C)[C@@H](CN(C)CC2CCCCC2)Oc2ccc(NC(=O)CCN3CCOCC3)cc2C1=O | inactive | inactive | inactive |
| C[C@H]1CN([C@@H](C)CO)C(=O)Cc2cc(NC(=O)Nc3ccc(C(F)(F)F)cc3)ccc2O[C@@H]1CN(C)C(=O)Nc1ccc(C(F)(F)F)cc1 | inactive | inactive |  |
| COc1ccc(NC(=O)Nc2cccc3c2O[C@H](CN(C)Cc2ccc(C(=O)Nc4ccccc4N)cc2)[C@@H](C)CN([C@@H](C)CO)C3=O)cc1 | inactive | inactive | inactive |
